Key:
Details in all cases: Flood, 250 g ai/ha; visual rating after 13 to 15 days; scale of 0 to 100 where 0 is no effect and 100 is complete control
rice (Oryza sativa) = assay: Test B flooded paddy test, rice
[1] = test system: ducksalad (Heteranthera limosa); assay: Test B flooded paddy test, ducksalad
[2] = test system: barnyardgrass (Echinochloa crus-galli); assay: Test B flooded paddy test, barnyardgrass
[3] = test system: sedge, umbrella (small-flower umbrella sedge, Cyperus difformis); assay: Test B flooded paddy test, sedge, umbrella

Structure (SMILES) | Plant response rating, Rice (rice (Oryza sativa)) | Plant response rating, Ducksalad [1] | Plant response rating, Barnyardgrass [2] | Plant response rating, Sedge, Umbrella [3]
COC1CCCN(C(=O)c2cc(N(S(=O)(=O)C(F)(F)F)S(=O)(=O)C(F)(F)F)c(C)cc2C)C1 (stereo not shown) [Compound 119] | 15 | 75 | 35 | 75
CO[C@@H]1CCCN(C(=O)c2cc(NS(=O)(=O)C(F)(F)F)c(C)cc2C)C1 [Compound 94] | 20 | 40 | 35 | 45
Cc1cc(C)c(C2=NOC(C)(CCl)C2)cc1NS(=O)(=O)C(F)(F)F (stereo not shown) [Compound 226] | 10 | 70 | 45 | 90
Cc1cc(F)c(C(=O)N(C)C)cc1N(S(=O)(=O)C(F)(F)F)S(=O)(=O)C(F)(F)F [Compound 216] | 0 | 0 | 0 | 0
Cc1c(NS(=O)(=O)C(F)(F)F)cc(C(=O)N2CCC3(CC2)OCCCO3)c(C)c1F [Compound 129] | 0 | 0 | 0 | 75
Cc1cc(C)c(C(=O)N2CC(C)OC(C)C2)cc1NS(=O)(=O)C(F)(F)F (stereo not shown) [Compound 9] | 10 | 95 | 85 | 95
COC1CCCN(C(=O)c2cc(NS(=O)(=O)C(F)(F)F)c(Cl)cc2C)C1 (stereo not shown) [Compound 146] | 0 | 85 | 0 | 85
CCn1nc(Cl)cc(-c2cc(NS(=O)(=O)C(F)(F)F)c(C)cc2C)c1=O [Compound 51] | 0 | 0 | 0 | 65
Cc1cc(C)c(C2=NOC3(C2)CC(C)CC(C)C3)cc1NS(=O)(=O)C(F)(F)F (single isomer, unassigned) [Compound 168] | 0 | 0 | 0 | 65
Cc1cc(C)c(N(S(C)(=O)=O)S(=O)(=O)C(F)(F)F)cc1-c1cc(C(C)C)nn(C)c1=O [Compound 39] | 5 | 0 | 0 | 80
Cc1cc(C)c(C2=NOC3CCCC23)cc1NS(=O)(=O)C(F)(F)F (stereo not shown) [Compound 166] | 25 | 70 | 95 | 95
Cc1c(NS(=O)(=O)C(F)(F)F)cc(C(=O)N2CC(C)OC(C)C2)c(C)c1F (stereo not shown) [Compound 116] | 0 | 90 | 0 | 95
Cc1cc(C)c(N(S(=O)(=O)C(F)(F)F)S(=O)(=O)C(F)(F)F)cc1C(=O)N1CCSCC1 [Compound 5] | 0 | 0 | 0 | 0
Cc1cc(C)c(C(=O)N2CCC(F)CC2)cc1NS(=O)(=O)C(F)(F)F [Compound 8] | 0 | 80 | 25 | 90
Cc1cc(Cl)c(C(=O)N(C)C)cc1NS(=O)(=O)C(F)(F)F [Compound 251] | 10 | 75 | 10 | 85
Cc1cc(C)c(-n2nccc(C)c2=O)cc1NS(=O)(=O)C(F)(F)F [Compound 84] | 0 | 0 | 0 | 0

From patent publication US20230278972A1, “SUBSTITUTED HALOALKYL SULFONANILIDE HERBICIDES” (FMC Corporation, priority 2020, published 2023)
